Measurements published in PubChem BioAssay AID588855 (National Center for Advancing Translational Sciences (NCATS), 2011).
Out of some 410,000 compounds screened, about 5,000 (1.2%) were called active. Inconclusive means that the source gave no clear call. Such entries were picked first, then a sample of the others. The call rests on the fitted dose curve; in most records, active means well fitted inhibition curve with a large enough effect; inconclusive means small, poorly fitted or top-dose-only effect; inactive means no such curve, though single readings can be large or run the other way. Potencies of inconclusive entries are doubtful fits and often do not repeat.

experiment: qHTS for Inhibitors of TGF-b; conditions: HepG2 CAGA-GFP TGF-b/SMAD3 reporter, GFP fluorescence, 18 h, TGF-beta stimulated, 500 pg/mL final; series mostly up to 46.1 µM; further: nearly all actives have a fitted effect of over 65% in size
In short: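 Cell-based qHTS in HEPG2 carrying a CAGA-GFP Smad reporter; compounds added before 500 pg/mL final TGF-beta, 18 h incubation at 37 degrees C, GFP fluorescence quantified per cell by imaging cytometry.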
Potency means the concentration at half of the fitted maximal effect; tags describe the fitted curve by direction and shape.

Structure (SMILES) | Potency
CCN(C(=O)c1cc(S(=O)(=O)N2CCc3ccccc32)cn1C)c1cccc(C)c1 | inconclusive: 35.5 µM [inhibitor, single point]
Cc1ccc(Cn2c(C(=O)O)c(CNCc3cccs3)c3ccc(C)cc32)cc1 | inconclusive: 25.1 µM [inhibitor, partial curve, poor fit]
CCOc1ccc(S(=O)(=O)N(CC(=O)O)c2ccc(C)cc2)cc1 | inactive
CN=c1scc(-c2ccc(Br)cc2)n1C | inactive
COc1cccc(/C=N/Nc2cc(-n3nc(C)cc3-c3ccccc3)ncn2)c1O | inconclusive: 7.94 µM [inhibitor, partial curve]
CCC(C)N(C(=O)COC(=O)CCc1c[nH]c2ccccc12)C1CCS(=O)(=O)C1 (stereo unspecified) | inconclusive: 14.1 µM [inhibitor, single point]
Cc1cc(OCC(F)(F)C(F)(F)C(F)(F)C(F)F)nc(N)n1 | inconclusive: 10 µM [inhibitor, partial curve]
c1ccc(-c2nc3cc4ccccc4cc3[nH]2)nc1 | inactive
Nn1c(SCC(=O)NCCc2ccc(F)cc2)nnc1C1CCCCC1 | inactive
CC(C)(C)OC(=O)N1CCC(c2c(C(=O)NCc3ccc4c(c3)OCO4)cnn2-c2ccccc2Cl)CC1 | inconclusive: 5.01 µM [inhibitor, full curve, poor fit]
CCOc1ccccc1/C=N/NC(=O)c1cccc(Cl)c1 | inconclusive: 35.5 µM [inhibitor, partial curve, poor fit]
O=C(c1ccccc1)c1ccc(Oc2ccc([N+](=O)[O-])cc2[N+](=O)[O-])cc1 | inactive
CC1(C)CC2(C)Nc3ccccc3N2C(=S)N1 (stereo unspecified) | inconclusive: 17.8 µM [inhibitor, single point]
COc1cccc(/C=N/NC(=O)CNC(=O)COc2cccc(C)c2)c1O | inconclusive: 12.6 µM [inhibitor, partial curve]
CC(C)C[C@H]1CN([C@@H](CC(C)C)CN2CCC[C@@H]2CN2C(=S)NC[C@@H]2Cc2ccc(O)cc2)C(=S)N1CC1CCCCC1 | inconclusive: 5.62 µM [inhibitor, partial curve, poor fit]
CCOC(=O)c1c(C)nc2c(c1-c1cc(OC)ccc1OC)C(=O)c1ccccc1-2 | inactive
Cc1c2cnn(-c3ccccc3)c(=O)c2c(C)n1C(C)C(=O)Nc1ccc(Br)cc1F (stereo unspecified) | inconclusive: 25.1 µM [inhibitor, single point]
CCOc1ccc(Br)cc1CSC(=N)N | inconclusive: 12.6 µM [inhibitor, partial curve, poor fit]
Cn1cnc([N+](=O)[O-])c1C(=O)Nc1cccc([N+](=O)[O-])c1 | inactive
COc1ccc(-c2csc3ncn(Cc4ccccc4)c(=O)c23)cc1 | inactive
CC(C)(C)C(=O)Nc1ccc(C(=O)N/N=C/c2ccccc2OC(=O)c2ccc(Cl)cc2)cc1 | inconclusive: 2.51 µM [inhibitor, full curve]
CCOC(=O)c1cc(-c2ccccc2)n(-c2cccc(C(=O)N(CC)c3ccccc3)c2)c1C | inconclusive: 2.24 µM [inhibitor, full curve, poor fit]
COc1ccc(C2CC(=O)C=C(NCc3ccc4c(c3)OCO4)C2)cc1 (stereo unspecified) | inactive

Structure (SMILES) | Potency
Cc1ccc(/C=N\NC(=O)c2csnn2)cc1 | inconclusive: 5.62 µM [inhibitor, single point]
Cc1c(Nc2cc(Cl)c3nonc3c2[N+](=O)[O-])c(=O)n(-c2ccccc2)n1C | inconclusive: 12.6 µM [inhibitor, single point]
ON1C(c2ccccc2C(F)(F)F)N(O)[C@H]2CCCC[C@H]21 (stereo partly specified) | inconclusive: 6.31 µM [inhibitor, single point]
CCOc1ccc(CNC(=S)Nc2ccccc2)cc1Cl | inconclusive: 17.8 µM [inhibitor, single point]
COc1ccc(CCn2nnnc2C(c2ccc(C)cc2)N2CCN(C)CC2)cc1OC (stereo unspecified) | inactive
CC1CCN(C(=O)CSc2ccc(-c3ccccc3)nn2)CC1 | inconclusive: 0.562 µM [inhibitor, full curve, poor fit]
COC(=O)C1=C(C)NC(=O)CC1c1cccc(Cl)c1Cl (stereo unspecified) | inconclusive: 35.5 µM [inhibitor, single point]
O=C(NCc1ccccc1)C1=C[C@@H](c2csc3ccccc23)C[C@@H](OCCCCO)O1 | inconclusive: 8.91 µM [inhibitor, partial curve, poor fit]
O=C(O)CCC(=O)c1ccc2c(c1)OCCO2 | inactive
CCCCn1c(SCC(=O)NC2CC2)nc2ccccc2c1=O | inactive
N#Cc1ccc(C(=O)Nc2nnc(-c3cccs3)o2)cc1 | inactive
Cc1nc(-c2cccnc2)sc1C(=O)Nc1cccc(C(F)(F)F)c1 | inactive
CCCCn1c(C(C)NC(=O)c2cccs2)nc2ccccc21 (stereo unspecified) | inconclusive: 17.8 µM [inhibitor, single point]
O=C(CN1c2ccccc2Sc2ccccc21)NNC(=O)Nc1ccc(Cl)c(Cl)c1 | inconclusive: 35.5 µM [inhibitor, single point]
CC(c1nccs1)N(C)C(=O)CCc1nnc(Cc2c[nH]c3ccccc23)o1 (stereo unspecified) | inactive
CNC(=S)Nc1ccc(C(N)=O)cc1 | inactive
O=C(NCCCNc1ccc([N+](=O)[O-])cc1Cl)c1ccccc1F | inconclusive: 0.112 µM [inhibitor, full curve, poor fit]
Cc1ccc(C(O)c2ncc(-c3ccc(Cl)cc3)[nH]2)c(C)c1 (stereo unspecified) | inactive
CCOC(=O)C(C(C)=O)c1c(Br)c(O)c(O)c2c(C(=O)c3ccc(C)cc3)coc12 (stereo unspecified) | active: 10 µM
CCOC(=O)c1cc(C)sc1NC(=O)c1ccc(Cl)s1 | inactive
CCOC(=O)c1cnc2c(cnn2C)c1NCCC(O)C(F)(F)F (stereo unspecified) | inactive
CN(CC(=O)Nc1cccc(F)c1)C(=O)c1ccc(-c2ccc(Cl)cc2)o1 | inconclusive: 35.5 µM [inhibitor, single point]
COc1cc(-c2nnc(SCC(=O)c3ccccc3)o2)cc(OC)c1OC | inconclusive: 1 µM [inhibitor, full curve, poor fit]
